# Reference: PubChem BioAssay AID1508624 (National Center for Advancing Translational Sciences (NCATS), 2021)
# The campaign covered roughly 48,000 compounds. About 120 (0.25%) were called active. Not shown: some 4% with an inconclusive outcome. Calls follow the shape of the dose curve; as a rule, active = well fitted activation curve with a large enough effect; inconclusive = small, poorly fitted or top-dose-only effect, or another doubt; inactive = no such curve, though single readings can be large or run the other way. The list shows a part of the results.
# Assay: Primary qHTS for Identification of Small Molecule Activators of Huntingtin-Antisense Promoter Activity; also: nearly all actives have a fitted effect of over 55% in size
# Details: HEK293 HTT-AS promoter firefly luciferase reporter, 24 h; series mostly up to 57.5 µM; activity change, positive = activation: at the top concentration
# Method in brief: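 Firefly luciferase signal from promoter-reporter HEK293 cells was scaled between vehicle (0%) and zero RLU (-100%). Compounds were tested at final concentrations of up to 57.5 uM over 24 h at 37 degrees C. PTC124 at 50 uM final served as control inhibitor.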
row,SMILES,"activity change, positive = activation"
1,COc1ccccc1NC(=O)CN1C(=O)C(C)(C)c2ccccc21,"inactive: -10.4% [at 11.5 µM, percent change from vehicle, -100% = no light]"
2,CC1=C(C(=O)Nc2ccccc2C)C(c2sccc2C)n2ncnc2N1 (configuration not stated),inactive: -12.6%
3,Cc1ccc(S(N)(=O)=O)cc1NC(=O)c1c(-c2c(Cl)cccc2Cl)noc1C,inactive: -9.81%
4,Cc1cccc(CSc2ncc(Cl)c(C(=O)Nc3nnc(C)s3)n2)c1,inactive: -23%
5,Cc1ccc(-c2nc(CCNC(=O)C(=O)Nc3ccc(C)c(Cl)c3)cs2)cc1,inactive: 0.415%
6,COc1ccccc1C(=O)Nc1ccccc1C(=O)OCc1cc(=O)n2ccsc2n1,inactive: 4.46%
7,CCOC(=O)c1sc(NC(=O)c2nc3nc(C)cc(C(F)F)n3n2)c(C(=O)OC(C)C)c1C,inactive: 3.53%
8,CCCOc1ccc(CNC(=O)CCCN2C(=O)CSc3c2c(C)nn3-c2ccccc2)cc1,inactive: -24.2%
9,CC(C)(C)NC(=O)[C@@H]1CN(Cc2cccnc2)CCN1C[C@@H](O)C[C@@H](Cc1ccccc1)C(=O)N[C@H]1c2ccccc2C[C@H]1O,inactive: -11.5%
10,CCOc1ccccc1NC(=O)CSc1nc2cc(OC)c(OC)cc2c2nc(CCn3c(C)nc4ccccc43)nn12,inactive: -7.54%
11,N#Cc1cccc(NC(=O)C2CCN(S(=O)(=O)c3ccc4c(c3)CCCN4C(=O)C3CCC3)CC2)c1,inactive: -26%
12,CCCN(CCC)C(=O)Cn1c(SCc2cccc(F)c2)nc2cccnc21,inactive: -9.29%
13,CCCS(=O)(=O)c1c(S(=O)(=O)CCC)c2cc(C(C)(C)C)ccn2c1C(=O)c1ccc(C)cc1,inactive: -21%
14,COc1ccc(Nc2nnc(-c3cc4cc(Cl)ccc4oc3=O)s2)cc1,inactive: 11%
15,CCC(C)NC(=O)c1ccc(Cn2c(=O)c3cccn3c3cccnc32)cc1 (configuration not stated),inactive: 2.25%
16,COc1cccc(CN2C(=O)c3ccccc3C2C(=O)NCCc2ccccc2)c1 (configuration not stated),inactive: -5.56%
17,COc1cc(SC)ccc1C(=O)N1CCn2c3c(c4cc(C)ccc42)CCCC31 (configuration not stated),inactive: -10.1%
18,COc1ccccc1CNC(=O)CSc1nc2nc(C)c(Cc3ccccc3C)c(C)n2n1,inactive: -16.3%
19,O=C(NCc1ccc(Cl)cc1)C1CCN(C(=O)c2cnn(-c3ccccc3)c2-n2cccc2)CC1,inactive: -39.4%
20,O=C(CCCCCn1c(=O)[nH]c2ccsc2c1=O)NCc1ccccc1,inactive: -5.26%
21,CCOc1ccc(CNC(=O)Cn2nc(N3CCN(c4ccccc4)CC3)ccc2=O)cc1,inactive: -26.4%
22,Oc1c(C(c2cccc(Br)c2)N2CCCC2)sc2nc(-c3ccco3)nn12 (configuration not stated),inactive: -19.9%
23,Cc1ccc(/C=C/c2onc(C)c2S(=O)(=O)N2CCC(C(=O)Nc3cccc(C#N)c3)CC2)cc1,inactive: -44.7%

row,SMILES,"activity change, positive = activation"
1,CCN(CC)CCNC(=O)CN1C(=O)CSc2ccc(S(=O)(=O)N3CCOCC3)cc21,inactive: -3.71%
2,CCOC(=O)COc1ccc(CC)cc1C(=O)c1ccn2nc(-c3ccc(C)cc3)cc2n1,inactive: -37.2%
3,Cc1ccccc1CSc1nc2c([nH]c3ccccc32)c(=O)n1-c1ccccc1,inactive: -20.4%
4,CCc1nnc2c(NCc3ccccc3)nc3ccccc3n12,inactive: -5.82%
5,O=C(NCCCN1CCN(c2ccccc2F)CC1)c1ccc2nc(Cc3ccccc3)oc2c1,inactive: -27.9%
6,Cc1ccc(C(=O)N2CCN(c3ccccc3)CC2)cc1NC(=O)c1nsc2ccccc12,inactive: -6.64%
7,N#Cc1c(C(F)(F)F)cc(-c2cccs2)nc1SCC(=O)Nc1cccc(Br)c1,inactive: -21.6%
8,CC(C)c1ccc(NC(=O)C2CCCN(S(=O)(=O)c3ccc4[nH]c(=O)oc4c3)C2)cc1 (configuration not stated),inactive: -15.1%
9,CCN(CC)S(=O)(=O)c1ccc2c(c1)c(=O)c(C(=O)N1CCN(c3ccc(OC)cc3)CC1)cn2C,inactive: -11%
10,CCc1ccccc1NC(=O)c1nc2nc(C)cc(C(F)F)n2n1,inactive: -0.174%
11,Cc1ccc(CNC(=O)CN2N=C(c3ccc(C)cc3)CCC2=O)cc1,inactive: -3.53%
12,CCCN(CCC)CCCNC(=O)Cn1ncn2c(cc3sc(CC)cc32)c1=O,inactive: 2.98%
13,Cn1c(-c2cccc(Br)c2)cnc1NCc1cccc(F)c1,inactive: -23.4%
14,COc1ccc2cc1Oc1ccc(cc1)C[C@H]1c3c(cc4c(c3Oc3cc5c(cc3OC)CCN(C)[C@@H]5C2)OCO4)CCN1C,inactive: -13.6%
15,Cc1cccc(-c2nnc(SCC(=O)Nc3ccc(C)c(C)c3)o2)c1,inactive: -17.5%
16,Cc1ccc(OCC(=O)N(Cc2ccc(N(C)C)cc2)CC2CCCO2)cc1C (configuration not stated),inactive: -13.2%
17,O=C(c1cccc([N+](=O)[O-])c1)N1c2nc(-c3ccco3)nn2C2(CCCCC2)[C@@H]2CCCC[C@@H]21,inactive: -31%
18,COc1ccc(-c2cc(C(F)(F)F)nc(SCC(=O)N3CCCCC3)n2)cc1,inactive: -3.41%
19,CCCC(=O)c1cc2c(cc1NC(=O)c1ccccc1F)OCCO2,inactive: -13.3%
20,CCCCOc1ccc(NC(=O)c2cc3c(n(-c4ccc(Cl)cc4)c2=O)CCCC3=O)cc1,inactive: -4.98%
21,Cc1ccc(CNC(=O)CCCn2c(=O)c3ccccc3n(Cc3ccccc3Cl)c2=O)cc1,inactive: -14.7%
22,COc1cccc(CNC(=O)C2CCCN(S(=O)(=O)c3ccc4c(ccn4C)c3)C2)c1OC (configuration not stated),inactive: -17.4%
23,O=C(Cn1c(=O)n(CCCS(=O)(=O)C2CCCCC2)c(=O)c2ccccc21)Nc1ccccc1F,inactive: -4.99%

row,SMILES,"activity change, positive = activation"
1,Cc1cc(C(=O)Nc2cccc(C(F)(F)F)c2)c2c(C)nn(-c3cccc(F)c3)c2n1,inactive: -84.8%
2,Cc1nn2c3c(cnc2c1-c1ccc(F)cc1)C(=O)CC(c1ccccc1)C3 (configuration not stated),inactive: -3.31%
3,CC(=O)Nc1ccc(NC(=O)CC(C)n2ccc(C)n2)cc1 (configuration not stated),inactive: -8.69%
4,O=S(=O)(NCCc1csc2nc(-c3ccc(F)cc3)nn12)c1ccc2c(c1)OCCO2,inactive: -38%
5,Cc1cc(C)c(-c2csc(-c3cc4ccccc4oc3=O)n2)cc1C,inactive: 0.652%
6,CCCN1CCN(CCNC(=O)Nc2cc(Cl)c(OC)cc2OC)CC1,inactive: -11.5%
7,Cc1cccc(N2C(=O)C(CC(=O)Nc3ccccc3)N(C3CCCCC3)C2=O)c1 (configuration not stated),inactive: 3.24%
8,COc1cccc(C(=O)Nc2nc3nc(C)c(Cc4ccccc4)c(=O)n3[nH]2)c1,inactive: -6.68%
9,Cn1c(=O)c2[nH]c(Br)nc2n(C)c1=O,inactive: -6.57%
10,CCOC(=O)c1c(C)[nH]c(C)c1S(=O)(=O)N(C)CC(=O)N1CCN(c2cccc(C)c2C)CC1,inactive: -18.2%
11,Cc1nn(C)c2c1c(-c1ccccc1)cc(=O)n2Cc1ccc(Br)cc1F,inactive: -3.1%
12,CCOC(=O)c1c(C)oc2nc(C)nc(NCCCN3CCN(c4ccccc4OC)CC3)c12,inactive: -16%
13,CCOc1ccc(C(=O)Nc2c(C)nc(Nc3ccccc3)nc2Nc2ccccc2)cc1OCC,inactive: -22.2%
14,COc1ccc(C(=O)Cn2c(=O)n3nc(CCn4nc(C)cc4C)nc3c3cc(OC)c(OC)cc32)cc1,inactive: -3.07%
15,COc1ccc(COc2cc3oc(=O)c4cc(C(C)O)ccc4c3cc2OC)cc1 (configuration not stated),inactive: -24.9%
16,COc1ccc(S(=O)(=O)Nc2c(C)n(C)n(-c3ccccc3)c2=O)cc1Br,inactive: 5.39%
17,COc1ccc(CCNc2nc(-c3ccccc3OC)cc(C(F)(F)F)n2)cc1OC,inactive: -44.9%
18,COc1ccccc1N1CCN(C(=O)CSc2nc(C)cc(=O)[nH]2)CC1,inactive: -9.38%
19,CC(C)Nc1cc(N2CCN(C3CCCCC3)CC2)c2noc3c2c1C(=O)c1ccccc1-3,inactive: -13%
20,CCOc1ccc(CNC(=O)C(C)n2ncn3cccc3c2=O)cc1 (configuration not stated),inactive: -10.4%
21,CCOC(=O)c1[nH]c(C)c(CCC(=O)Nc2ccc(C)cc2Cl)c1C,inactive: -8.11%
22,O=C(c1ccc(Br)cc1)N1CCC(c2nc3ccccc3s2)CC1,inactive: -11.2%
23,CCOc1ccccc1CNC(=O)C1=C(C)C(=O)OC12CCN(C(C)=O)CC2,inactive: -7.67%

row,SMILES,"activity change, positive = activation"
1,CN1CCC(N(Cc2cccs2)c2ccccc2)CC1,inactive: -20.8%
2,O=C(NCCc1ccccc1)c1c2c(nc3ccccc13)C(=O)N(C1CCCCC1)C2,inactive: 4.38%
3,Cc1oc(-c2cccc(Cl)c2)nc1CN1CCC(C(=O)NCc2ccc(F)cc2)CC1,inactive: -6.55%
4,C=CCOc1cc(Cl)ccc1C(=O)NCCN(CC)CC,inactive: -4.96%
5,O=C(COCCOCCOCC(=O)Nc1c(I)cc(I)c(C(=O)O)c1I)Nc1c(I)cc(I)c(C(=O)O)c1I,inactive: -2.18%
6,CCCN1C(=O)c2[nH]nc(-c3ccc(F)cc3)c2C1c1ccc(O)c(OCC)c1 (configuration not stated),inactive: -17.7%
7,COc1cccc(NC(=O)Cc2ccc(NC(=O)N3CCCCc4ccccc43)cc2)c1,inactive: -21.7%
8,Cc1cc2c(n1-c1ccc(C(=O)NCc3cccc(Br)c3)cc1)CCC(C)C2 (configuration not stated),inactive: -11.8%
9,CCOC(=O)c1c(-c2ccccc2)oc2ccc(OCc3ccc(C)cc3)cc12,inactive: -19.2%
10,Cc1ccccc1Cn1c(=O)n(CCCCC(=O)NCc2ccc3c(c2)OCO3)c(=O)c2ccccc21,inactive: -42.1%
11,Cc1ccc(N2C(=O)CSC23C(=O)Nc2ccccc23)cc1F (configuration not stated),inactive: -7.48%
12,Cc1cccc(-c2nc3c4ccccc4n(CC(=O)Nc4cc(F)ccc4F)c(=O)n3n2)c1,inactive: 9.68%
13,O=C(COc1ccccc1F)Nc1ccc2nc(SCC(=O)N3CCOCC3)sc2c1,inactive: -12.6%
14,O=S(=O)(c1ccccc1)c1nc(-c2ccc(F)cc2)oc1NCc1ccccc1,inactive: 10.5%
15,COc1ccc(CNC(=O)CCCc2nnc3n(C(C)C)c(=O)c4sccc4n23)cc1,inactive: -13.4%
16,CC(C)(Oc1ccc(Cl)cc1)C(=O)OCCCOC(=O)C(C)(C)Oc1ccc(Cl)cc1,inactive: -6.62%
17,O=C(NCCc1ccccc1)c1ccc2c(c1)nc1n2CCOC1,inactive: -50.7%
18,Cc1ccc(S(=O)(=O)Nc2cc(Cl)c3oc4c(c3c2)CCCC4)cc1,inactive: -21.6%
19,CCOC(=O)c1cccc(NC(=O)CSc2ncc3c(n2)-c2ccc(Cl)cc2N(Cc2ccccc2)S3(=O)=O)c1,inactive: -10.1%
20,COc1ccccc1CNC(=O)CCS(=O)(=O)c1ccc2c(c1)oc(=O)n2C,"inactive: 7.1% [at 11.5 µM, percent change from vehicle, -100% = no light]"
21,CCOc1ccc(CNC(=O)CSc2c3c(nc4cc(Cl)ccc24)CCCC3)cc1,inactive: -33.6%
22,Cc1c(C)n(Cc2ccccc2)c2ccc(C(=O)N3CCN(c4ccccc4)CC3)cc12,inactive: -1.71%
23,CCN(CC)S(=O)(=O)c1ccc2c(c1)N(CC(=O)Nc1c(C)cccc1C)C(=O)C1CCCN21 (configuration not stated),inactive: -9.24%
